Our source for the enrichment ratio values is a collection of fitness landscapes (doi:10.1126/science.1257360).

B1: PhoQ; a variant is named by its letters at X, in order, P23837 (parent)
chain: MKKLLRLFFPLSLRVRFLLATAAVVLVLSLAYGMVALIGYSVSFDKTTFRLLRGESNLFYTLAKWENNKLHVELPENIDKQSPTMTLIYDENGQLLWAQRDVPWLMKMIQPDWLKSNGFHEIEADVNDTSLLLSGDHSIQQQLQEVREDDDDAEMTHSVAVNVYPATSRMPKLTIVVVDTIPVELKSSYMVWSWFIYVLSANLLLVIPLLWVAAWWSLRPIEALAKEVRELEEHNRELLNPATTRELTSLVRNLNRLLKSERERYDKYRTTLTDLTHSLKTPLXXLQXXLRSLRSEKMSVSDAEPVMLEQISRISQQIGYYLHRASMRGGTLLSRELHPVAPLLDNLTSALNKVYQRKGVNISLDISPEISFVGEQNDFVEVMGNVLDNACKYCLEFVEISARQTDEHLYIVVEDDGPGIPLSKREVIFDRGQRVDTLRPGQGVGLAVAREITEQYEGKIVAGESMLGGARMEVIFGRQHSAPKDE

The list shows a part of the results.

In this assay the parent is B1. The assay can be described thus: enrichment ratio after two sorts for PhoP signalling (ratio (wild type AVST 3.29)); higher = more functional. As to conditions: with PhoP (E. coli).
Turning to NMGE, the enrichment ratio is at most 0.25.
For TIGF, the enrichment ratio is 8.05.
The figure for HQPV is at most 0.25.
As to IYMR, the enrichment ratio was at most 0.25.
The figure for RNIR is at most 0.25; for YLGV it is at most 0.25.
Take HYIY: the enrichment ratio is at most 0.25.
For KAPF, the enrichment ratio is at most 0.25.
With NKYV the figure was at most 0.25; with GSVK, at most 0.25; with KCLW, at most 0.25.
Take NIPI: the enrichment ratio was at most 0.25.
For WIPT, the enrichment ratio is at most 0.25.
As to TFWT, the enrichment ratio was at most 0.25.
With FIVA, the enrichment ratio was at most 0.25.
The figure for GSQA is at most 0.25; for QQGR it is at most 0.25; for QERI it is at most 0.25.
As to PRRK, the enrichment ratio was at most 0.25.
Take SKRS: the enrichment ratio was at most 0.25.
With DNDI the figure was at most 0.25.
On to CFAW, for which the enrichment ratio was at most 0.25.
Take NPVT: the enrichment ratio was at most 0.25.
Take HCML: the enrichment ratio was determined as 3.61.
The figure for MLGQ is at most 0.25.
As for TLFE, the enrichment ratio is at most 0.25.
The figure for NTLF is at most 0.25; for FKQG it is at most 0.25; for SIAV it is 12.2.
With HGSV, the enrichment ratio is at most 0.25.
Consider DSKQ, for which the enrichment ratio was at most 0.25.
With VHHM the figure was 2.3; with ISGT, at most 0.25; with IAYS, at most 0.25.
With HFCK the figure was at most 0.25.
In the case of FFIW, the enrichment ratio is at most 0.25.
With KFHI, the enrichment ratio is at most 0.25.
As for LRQR, the enrichment ratio was at most 0.25.
With VAIY the figure was at most 0.25.
In the case of DNVM, the enrichment ratio was at most 0.25.
As for YSPV, the enrichment ratio was at most 0.25.
As to YGHE, the enrichment ratio is at most 0.25.
Consider IGPW, for which the enrichment ratio was at most 0.25.
The figure for NEVH is at most 0.25.
PFCP: the enrichment ratio was at most 0.25.
With SIIW the figure was at most 0.25.
The figure for PCCQ is at most 0.25; for KHLR it is at most 0.25; for LTIY it is at most 0.25.
The figure for FGAQ is at most 0.25; for TWTP it is at most 0.25; for MFFW it is at most 0.25.
For AHWQ, the enrichment ratio is at most 0.25.
For FTKK, the enrichment ratio was at most 0.25.
RYTN: the enrichment ratio was at most 0.25.
Turning to LAIE, the enrichment ratio is at most 0.25.
With EVLH the figure was at most 0.25; with FQSM, at most 0.25; with PRTP, at most 0.25.
The figure for SLRA is at most 0.25.
The figure for LEDY is at most 0.25; for QLYD it is at most 0.25; for PQVY it is at most 0.25.
Turning to KTTE, the enrichment ratio was at most 0.25.
Turning to KQTF, the enrichment ratio is at most 0.25.
For TRDV, the enrichment ratio was at most 0.25.
The figure for GVGV is at most 0.25.
The figure for EHFD is at most 0.25; for NEIY it is at most 0.25.
Take NVTW: the enrichment ratio is at most 0.25.
The figure for TCRY is at most 0.25; for DWLD it is at most 0.25.
The figure for RNTL is at most 0.25; for RCDM it is at most 0.25.
For the variant LLYS, the enrichment ratio was at most 0.25.
The figure for QMKP is at most 0.25.
The figure for IPWF is at most 0.25; for ILTL it is at most 0.25; for IEDA it is at most 0.25.
Take ALIE: the enrichment ratio was at most 0.25.
The figure for YWSC is at most 0.25.
With QLLL the figure was at most 0.25.
With FSRI the figure was at most 0.25; with PPDV, 1.7.
RDHL: the enrichment ratio is at most 0.25.
For the variant YGNR, the enrichment ratio is at most 0.25.
Regarding WKCS, the enrichment ratio was at most 0.25.
The figure for TATY is 6.28; for LSSN it is at most 0.25.
The figure for DIVY is at most 0.25.
As to DAPL, the enrichment ratio is at most 0.25.
With VIWV the figure was at most 0.25; with YWQI, at most 0.25; with SWFR, at most 0.25.
The figure for FRMG is at most 0.25; for GLGD it is at most 0.25.
With SGHM, the enrichment ratio worked out at 4.1.
The figure for HALC is 1.03.
As for GNYQ, the enrichment ratio is at most 0.25.
Take HFPV: the enrichment ratio was at most 0.25.
Regarding PAFC, the enrichment ratio was at most 0.25.
With QLGQ, the enrichment ratio is at most 0.25.
The figure for NSRG is at most 0.25; for NNLC it is at most 0.25; for NYAR it is at most 0.25.
With VPCN the figure was at most 0.25; with RWTD, at most 0.25; with HSAP, at most 0.25.
On to RVRV, for which the enrichment ratio was at most 0.25.
Consider IQLA, for which the enrichment ratio was at most 0.25.
With TLIQ the figure was at most 0.25.
With NFNW the figure was at most 0.25.
The figure for RQWL is at most 0.25.
As for DLHK, the enrichment ratio is at most 0.25.
With VKTY the figure was at most 0.25; with WKGV, at most 0.25; with EVRN, at most 0.25.
The figure for SHNP is at most 0.25.
As for NPVR, the enrichment ratio was at most 0.25.
Regarding YQRV, the enrichment ratio was at most 0.25.
On to DHQN, for which the enrichment ratio is at most 0.25.
Take WNAS: the enrichment ratio was at most 0.25.
Take VHED: the enrichment ratio was at most 0.25.
On to PRDY, for which the enrichment ratio was at most 0.25.
With TSLC, the enrichment ratio came out at 18.4.
The figure for QKRD is at most 0.25; for PEIS it is at most 0.25; for KQCC it is at most 0.25.
The figure for LACG is at most 0.25; for INKG it is at most 0.25; for HKRQ it is at most 0.25.
The figure for DANL is at most 0.25; for PPRE it is at most 0.25.
Consider PHDC, for which the enrichment ratio was at most 0.25.
The figure for KDHF is at most 0.25.
The figure for HFPE is at most 0.25; for PKMY it is at most 0.25.
The figure for DSKE is at most 0.25; for PLNQ it is at most 0.25.
For the variant DYEE, the enrichment ratio was at most 0.25.
Turning to QSAP, the enrichment ratio was at most 0.25.
Turning to GAYW, the enrichment ratio is at most 0.25.
The figure for RNSY is 0.443; for LPIY it is at most 0.25; for LVFA it is at most 0.25.
In the case of NPFV, the enrichment ratio is at most 0.25.
Turning to VYVV, the enrichment ratio is at most 0.25.
As for AKML, the enrichment ratio came out at 9.72.
For the variant QEHI, the enrichment ratio turned out to be 0.893.
Take WRGK: the enrichment ratio is at most 0.25.
On to HRQF, for which the enrichment ratio is at most 0.25.
The figure for WVYA is at most 0.25.
With LFDS the figure was at most 0.25.
